# Measurements as given in the supplement of paper PMC8728848.
# This is one part of the list.
# Columns and labels:
# Test in all cases: glycan array binding signal (z-score within array); higher = stronger binding
# Details in all cases: glycan notation: IUPAC condensed, linker removed
# Fuc(a1-2)Gal = biological target: Fuc(a1-2)Gal
# In short: (§1)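 From the Consortium for Functional Glycomics database, 3228 arrays were curated, keeping only those whose protein sequence was available. Binding is given as a within-array Z-score averaged across arrays sharing a protein sequence and across linkers. Negative Z-scores can be read as non-binding.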
# Fuc(a1-2)Gal(b1-3)GalNAc = biological target: Fuc(a1-2)Gal(b1-3)GalNAc
# In short: as §1
# [1] = biological target: Fuc(a1-2)Gal(b1-3)GalNAc(a1-3)[Fuc(a1-2)]Gal(b1-4)Glc
# In short: as §1
# [2] = biological target: Fuc(a1-2)Gal(b1-3)GalNAc(a1-3)[Fuc(a1-2)]Gal(b1-4)GlcNAc
# In short: as §1
# [3] = biological target: Fuc(a1-2)Gal(b1-3)GalNAc(b1-3)Gal
# In short: as §1
# [4] = biological target: Fuc(a1-2)Gal(b1-3)GalNAc(b1-3)Gal(a1-4)Gal(b1-4)Glc
# In short: as §1
# [5] = biological target: Fuc(a1-2)Gal(b1-3)GalNAc(b1-4)[Neu5Ac(a2-3)]Gal(b1-4)Glc
# In short: as §1
# Fuc(a1-2)Gal(b1-3)GlcNAc = biological target: Fuc(a1-2)Gal(b1-3)GlcNAc
# In short: as §1
# [6] = biological target: Fuc(a1-2)Gal(b1-3)GlcNAc(b1-2)Man(a1-3)[Fuc(a1-2)Gal(b1-3)GlcNAc(b1-2)Man(a1-6)]Man(b1-4)GlcNAc(b1-4)GlcNAc
# In short: as §1
# [7] = biological target: Fuc(a1-2)Gal(b1-3)GlcNAc(b1-2)Man(a1-3)[Fuc(a1-2)Gal(b1-3)GlcNAc(b1-2)Man(a1-6)]Man(b1-4)GlcNAc(b1-4)[Fuc(a1-6)]GlcNAc
# In short: as §1
# [8] = biological target: Fuc(a1-2)Gal(b1-3)GlcNAc(b1-3)Gal(b1-4)Glc
# In short: as §1
# [9] = biological target: Fuc(a1-2)Gal(b1-3)GlcNAc(b1-3)GalNAc
# In short: as §1
# [10] = biological target: Fuc(a1-2)Gal(b1-3)GlcNAc(b1-3)[Fuc(a1-2)Gal(b1-3)GlcNAc(b1-6)]GalNAc
# In short: as §1
# [11] = biological target: Fuc(a1-2)Gal(b1-3)GlcNAc(b1-3)[Gal(b1-4)GlcNAc(b1-6)]Gal(b1-4)Glc
# In short: as §1
# [12] = biological target: Fuc(a1-2)Gal(b1-3)GlcNAc(b1-3)[Neu5Ac(a2-6)Gal(b1-4)GlcNAc(b1-6)]Gal(b1-4)Glc
# In short: as §1
# [13] = biological target: Fuc(a1-2)Gal(b1-3)GlcNAc6S
# In short: as §1
# [14] = biological target: Fuc(a1-2)Gal(b1-3)[Fuc(a1-4)]GlcNAc
# In short: as §1
# [15] = biological target: Fuc(a1-2)Gal(b1-3)[Fuc(a1-4)]GlcNAc(b1-2)Man(a1-3)[Fuc(a1-2)Gal(b1-3)[Fuc(a1-4)]GlcNAc(b1-2)Man(a1-3)]Man(b1-4)GlcNAc(b1-4)GlcNAc
# In short: as §1
# [16] = biological target: Fuc(a1-2)Gal(b1-3)[Fuc(a1-4)]GlcNAc(b1-2)Man(a1-3)[Fuc(a1-2)Gal(b1-3)[Fuc(a1-4)]GlcNAc(b1-2)Man(a1-6)]Man(b1-4)GlcNAc(b1-4)[Fuc(a1-6)]GlcNAc(b1-4)[Fuc(a1-6)]GlcNAc
# In short: as §1
# [17] = biological target: Fuc(a1-2)Gal(b1-3)[Fuc(a1-4)]GlcNAc(b1-3)[Fuc(a1-3)[Gal(b1-4)]GlcNAc(b1-6)]Gal(b1-4)Glc
# In short: as §1
# [18] = biological target: Fuc(a1-2)Gal(b1-3)[Fuc(a1-4)]GlcNAc(b1-3)[Gal(b1-4)GlcNAc(b1-6)]Gal(b1-4)Glc
# In short: as §1
# Fuc(a1-2)Gal(b1-4)Glc = biological target: Fuc(a1-2)Gal(b1-4)Glc
# In short: as §1
# Fuc(a1-2)Gal(b1-4)Glc6S = biological target: Fuc(a1-2)Gal(b1-4)Glc6S
# In short: as §1
# Fuc(a1-2)Gal(b1-4)GlcNAc = biological target: Fuc(a1-2)Gal(b1-4)GlcNAc
# In short: as §1
# [19] = biological target: Fuc(a1-2)Gal(b1-4)GlcNAc(b1-2)Man
# In short: as §1
# [20] = biological target: Fuc(a1-2)Gal(b1-4)GlcNAc(b1-2)Man(a1-3)[Fuc(a1-2)Gal(b1-4)GlcNAc(b1-2)Man(a1-6)]Man(b1-4)GlcNAc(b1-4)GlcNAc
# In short: as §1
# [21] = biological target: Fuc(a1-2)Gal(b1-4)GlcNAc(b1-2)Man(a1-3)[Fuc(a1-2)Gal(b1-4)GlcNAc(b1-2)Man(a1-6)]Man(b1-4)GlcNAc(b1-4)[Fuc(a1-6)]GlcNAc
# In short: as §1
# [22] = biological target: Fuc(a1-2)Gal(b1-4)GlcNAc(b1-2)[Fuc(a1-2)Gal(b1-4)GlcNAc(b1-4)]Man(a1-3)[Fuc(a1-2)Gal(b1-4)GlcNAc(b1-2)Man(a1-6)]Man(b1-4)GlcNAc(b1-4)GlcNAc
# In short: as §1
# [23] = biological target: Fuc(a1-2)Gal(b1-4)GlcNAc(b1-3)Gal(b1-4)GlcNAc
# In short: as §1
# [24] = biological target: Fuc(a1-2)Gal(b1-4)GlcNAc(b1-3)Gal(b1-4)GlcNAc(b1-2)Man(a1-3)[Fuc(a1-2)Gal(b1-4)GlcNAc(b1-3)Gal(b1-4)GlcNAc(b1-2)Man(a1-6)]Man(b1-4)GlcNAc(b1-4)GlcNAc
# In short: as §1
# [25] = biological target: Fuc(a1-2)Gal(b1-4)GlcNAc(b1-3)Gal(b1-4)GlcNAc(b1-3)Gal(b1-4)GlcNAc
# In short: as §1
# [26] = biological target: Fuc(a1-2)Gal(b1-4)GlcNAc(b1-3)GalNAc
# In short: as §1
# [27] = biological target: Fuc(a1-2)Gal(b1-4)GlcNAc(b1-3)[Fuc(a1-2)Gal(b1-4)GlcNAc(b1-6)]GalNAc
# In short: as §1
# [28] = biological target: Fuc(a1-2)Gal(b1-4)GlcNAc(b1-3)[Fuc(a1-3)[Gal(b1-4)]GlcNAc(b1-6)]Gal(b1-4)Glc
# In short: as §1
# [29] = biological target: Fuc(a1-2)Gal(b1-4)GlcNAc(b1-6)GalNAc
# In short: as §1
# [30] = biological target: Fuc(a1-2)Gal(b1-4)GlcNAc6S
# In short: as §1
# [31] = biological target: Fuc(a1-2)Gal(b1-4)[Fuc(a1-3)]GlcNAc
# In short: as §1
# [32] = biological target: Fuc(a1-2)Gal(b1-4)[Fuc(a1-3)]GlcNAc(b1-2)Man(a1-3)[Fuc(a1-2)Gal(b1-4)[Fuc(a1-3)]GlcNAc(b1-2)Man(a1-6)]Man(b1-4)GlcNAc(b1-4)[Fuc(a1-6)]GlcNAc
# In short: as §1
# [33] = biological target: Fuc(a1-2)Gal(b1-4)[Fuc(a1-3)]GlcNAc(b1-2)[Fuc(a1-2)Gal(b1-4)[Fuc(a1-3)]GlcNAc(b1-4)]Man(a1-3)[Fuc(a1-2)Gal(b1-4)[Fuc(a1-3)]GlcNAc(b1-2)Man(a1-6)]Man(b1-4)GlcNAc(b1-4)GlcNAc
# In short: as §1
# [34] = biological target: Fuc(a1-2)Gal(b1-4)[Fuc(a1-3)]GlcNAc(b1-3)Gal(b1-4)[Fuc(a1-3)]GlcNAc
# In short: as §1
# [35] = biological target: Fuc(a1-2)Gal(b1-4)[Fuc(a1-3)]GlcNAc(b1-3)Gal(b1-4)[Fuc(a1-3)]GlcNAc(b1-3)Gal(b1-4)[Fuc(a1-3)]GlcNAc
# In short: as §1
# [36] = biological target: Fuc(a1-2)Gal(b1-4)[Fuc(a1-3)]GlcNAc(b1-3)GalNAc
# In short: as §1
# [37] = biological target: Fuc(a1-2)Gal(b1-4)[Fuc(a1-3)]GlcNAc(b1-3)[Neu5Ac(a2-6)Gal(b1-4)GlcNAc(b1-6)]Gal(b1-4)Glc
# In short: as §1
# [38] = biological target: Fuc(a1-2)Gal3S(b1-4)GlcNAc
# In short: as §1
# [39] = biological target: Fuc(a1-2)Gal6S(b1-3)GlcNAc
# In short: as §1
binder,measurement,setting,value
SP15308A-bot-339-19-339 (Bacteroides ovatus) (protein) ACNNEWEDEQYEQYISFKSPIPAGGEGVTDIYVRYKEDGKVTYRLPIVVSGSTTNTLDREVHIAVDKDTLETLNIERFSIHRPGLWYTALEEDKYDFPKTVHISAGSSVEQLNIDFNLQGIDMLEKWVLPLTIVDDPSYNYKSHPRKNYAKALLRVIPFNNYSGSYTSSAMKVYTYINGKPDTNARTANKRTGYVINDNTVFFYAGLISEDLDKEVREKYKINVHFNEDGTLHMEQGDPTNKMKFELIGTPTYSKTSVMDATRPYLERRYVQIMFEYDFEDFSYGGNGVDVIPIKYKVEGSMTLQRNINTQIPDEDQQIEW,glycan array binding signal (z-score),Fuc(a1-2)Gal,-0.352
same,glycan array binding signal (z-score),Fuc(a1-2)Gal(b1-3)GalNAc,0.245
same,glycan array binding signal (z-score),[1],-0.461
same,glycan array binding signal (z-score),[2],-0.235
same,glycan array binding signal (z-score),[3],-0.326
same,glycan array binding signal (z-score),[4],-0.053
same,glycan array binding signal (z-score),[5],-0.292
same,glycan array binding signal (z-score),Fuc(a1-2)Gal(b1-3)GlcNAc,-0.201
same,glycan array binding signal (z-score),[6],0.068
same,glycan array binding signal (z-score),[7],0.285
same,glycan array binding signal (z-score),[8],-0.208
same,glycan array binding signal (z-score),[9],-0.509
same,glycan array binding signal (z-score),[10],0.262
same,glycan array binding signal (z-score),[11],-0.461
same,glycan array binding signal (z-score),[12],0.282
same,glycan array binding signal (z-score),[13],0.314
same,glycan array binding signal (z-score),[14],-0.547
same,glycan array binding signal (z-score),[15],0.066
same,glycan array binding signal (z-score),[16],-0.207
same,glycan array binding signal (z-score),[17],0.069
same,glycan array binding signal (z-score),[18],-0.441
same,glycan array binding signal (z-score),Fuc(a1-2)Gal(b1-4)Glc,-0.352
same,glycan array binding signal (z-score),Fuc(a1-2)Gal(b1-4)Glc6S,-0.314
same,glycan array binding signal (z-score),Fuc(a1-2)Gal(b1-4)GlcNAc,-0.054
same,glycan array binding signal (z-score),[19],0.22
same,glycan array binding signal (z-score),[20],0.001
same,glycan array binding signal (z-score),[21],-0.468
same,glycan array binding signal (z-score),[22],-0.643
same,glycan array binding signal (z-score),[23],-0.213
same,glycan array binding signal (z-score),[24],0.005
same,glycan array binding signal (z-score),[25],-0.419
same,glycan array binding signal (z-score),[26],0.02
same,glycan array binding signal (z-score),[27],0.349
same,glycan array binding signal (z-score),[28],-0.168
same,glycan array binding signal (z-score),[29],-0.072
same,glycan array binding signal (z-score),[30],-0.416
same,glycan array binding signal (z-score),[31],-0.007
same,glycan array binding signal (z-score),[32],0.494
same,glycan array binding signal (z-score),[33],-0.05
same,glycan array binding signal (z-score),[34],0.357
same,glycan array binding signal (z-score),[35],-0.231
same,glycan array binding signal (z-score),[36],0.687
same,glycan array binding signal (z-score),[37],0.039
same,glycan array binding signal (z-score),[38],0.29
same,glycan array binding signal (z-score),[39],-0.017
